No constants are given. Whether binding was seen depends on the method and setting. In cells and extracts the contact can be indirect. Some entries that bind do so weakly or less than the wild type. Sequences can lack the tags named with a protein.
What was measured:
Assay in all cases: co-IP; small-scale TAP purification: C-terminally TAP-tagged Vps8 or Vps3 (full-length or truncated) captured from yeast lysate (50 mM HEPES/KOH pH 7.4, 300 mM NaCl, 0.15% NP-40, 2 mM MgCl2, 1 mM DTT) on IgG beads, 1.5 h at 4°C; eluted with glycine pH 2.5 or TEV protease; Western blot with anti-Cbp, anti-HA, anti-Vps11; also with overproduced Vps8ΔN and from vps21Δ and vps21Δ ypt52Δ ypt53Δ ypt7Δ strains
[1] = target: T1, Vps3ΔN-TAP (C-terminal domain of Vps3, from residue 427, C-terminal TAP tag) (yeast (genomic locus of BY4741/BY4733 strains)) (UniProt P23643)
T1 sequence: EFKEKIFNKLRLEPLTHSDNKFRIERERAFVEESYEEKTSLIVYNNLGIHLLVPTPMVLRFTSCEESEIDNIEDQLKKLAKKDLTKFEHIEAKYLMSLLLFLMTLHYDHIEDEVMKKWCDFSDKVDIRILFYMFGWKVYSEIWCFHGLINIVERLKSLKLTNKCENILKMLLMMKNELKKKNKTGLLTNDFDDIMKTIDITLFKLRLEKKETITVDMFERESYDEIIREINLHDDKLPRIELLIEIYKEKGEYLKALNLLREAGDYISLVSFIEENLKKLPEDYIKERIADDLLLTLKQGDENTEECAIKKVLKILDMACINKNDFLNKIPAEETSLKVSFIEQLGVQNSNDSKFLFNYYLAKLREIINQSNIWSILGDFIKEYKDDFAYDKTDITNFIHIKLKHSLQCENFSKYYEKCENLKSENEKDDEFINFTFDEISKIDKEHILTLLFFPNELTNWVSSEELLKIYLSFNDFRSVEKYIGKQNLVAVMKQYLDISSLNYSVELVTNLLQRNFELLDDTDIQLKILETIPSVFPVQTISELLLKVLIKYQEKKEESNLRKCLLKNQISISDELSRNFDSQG

Protein sequences, listed by entry. Tags and fused reporters are not part of them.
UniProt P12868: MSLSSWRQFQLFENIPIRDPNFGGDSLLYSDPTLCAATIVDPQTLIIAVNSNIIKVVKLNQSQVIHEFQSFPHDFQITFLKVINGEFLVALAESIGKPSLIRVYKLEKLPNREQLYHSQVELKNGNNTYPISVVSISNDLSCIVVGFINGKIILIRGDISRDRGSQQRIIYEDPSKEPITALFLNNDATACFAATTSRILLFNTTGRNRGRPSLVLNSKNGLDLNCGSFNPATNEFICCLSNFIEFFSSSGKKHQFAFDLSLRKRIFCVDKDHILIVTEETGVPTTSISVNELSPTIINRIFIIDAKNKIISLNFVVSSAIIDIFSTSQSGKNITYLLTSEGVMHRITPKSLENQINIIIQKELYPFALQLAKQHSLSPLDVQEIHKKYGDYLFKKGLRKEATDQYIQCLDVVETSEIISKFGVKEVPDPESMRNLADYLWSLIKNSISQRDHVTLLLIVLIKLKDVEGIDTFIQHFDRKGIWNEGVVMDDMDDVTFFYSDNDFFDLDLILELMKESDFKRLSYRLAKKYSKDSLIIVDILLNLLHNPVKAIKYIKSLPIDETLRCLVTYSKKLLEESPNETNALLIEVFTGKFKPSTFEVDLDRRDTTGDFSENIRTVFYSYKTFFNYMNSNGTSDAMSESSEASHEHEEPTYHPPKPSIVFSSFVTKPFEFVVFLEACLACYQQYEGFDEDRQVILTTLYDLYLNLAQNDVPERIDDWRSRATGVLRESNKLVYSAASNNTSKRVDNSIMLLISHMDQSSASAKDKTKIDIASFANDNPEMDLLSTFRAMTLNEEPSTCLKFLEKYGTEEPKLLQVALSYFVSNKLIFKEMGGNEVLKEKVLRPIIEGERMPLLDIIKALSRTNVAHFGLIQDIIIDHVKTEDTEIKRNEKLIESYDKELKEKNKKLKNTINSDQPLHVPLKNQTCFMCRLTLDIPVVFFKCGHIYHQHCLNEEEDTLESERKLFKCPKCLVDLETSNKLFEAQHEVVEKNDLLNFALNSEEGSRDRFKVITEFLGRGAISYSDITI

[2] = target: T2, Vps3ΔC-TAP (N-terminal domain of Vps3, up to residue 426, C-terminal TAP tag) (yeast (genomic locus of BY4733 strains)) (UniProt P23643)
T2 sequence: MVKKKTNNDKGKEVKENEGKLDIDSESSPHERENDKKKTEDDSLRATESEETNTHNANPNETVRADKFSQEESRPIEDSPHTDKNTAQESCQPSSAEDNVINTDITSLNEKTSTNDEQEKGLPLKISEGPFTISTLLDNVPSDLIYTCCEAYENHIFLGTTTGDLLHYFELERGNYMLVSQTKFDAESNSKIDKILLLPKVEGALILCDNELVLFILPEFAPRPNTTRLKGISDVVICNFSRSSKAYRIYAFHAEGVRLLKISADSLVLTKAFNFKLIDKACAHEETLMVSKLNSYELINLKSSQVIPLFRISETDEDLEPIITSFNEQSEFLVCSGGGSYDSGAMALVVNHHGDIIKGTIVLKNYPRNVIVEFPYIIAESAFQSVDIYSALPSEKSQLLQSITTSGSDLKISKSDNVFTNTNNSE

[3] = target: T3, Vps8ΔC-TAP (N-terminal domain of Vps8, up to residue 450, C-terminal TAP tag) (yeast (genomic locus of BY4733 strains)) (UniProt P39702)
T3 sequence: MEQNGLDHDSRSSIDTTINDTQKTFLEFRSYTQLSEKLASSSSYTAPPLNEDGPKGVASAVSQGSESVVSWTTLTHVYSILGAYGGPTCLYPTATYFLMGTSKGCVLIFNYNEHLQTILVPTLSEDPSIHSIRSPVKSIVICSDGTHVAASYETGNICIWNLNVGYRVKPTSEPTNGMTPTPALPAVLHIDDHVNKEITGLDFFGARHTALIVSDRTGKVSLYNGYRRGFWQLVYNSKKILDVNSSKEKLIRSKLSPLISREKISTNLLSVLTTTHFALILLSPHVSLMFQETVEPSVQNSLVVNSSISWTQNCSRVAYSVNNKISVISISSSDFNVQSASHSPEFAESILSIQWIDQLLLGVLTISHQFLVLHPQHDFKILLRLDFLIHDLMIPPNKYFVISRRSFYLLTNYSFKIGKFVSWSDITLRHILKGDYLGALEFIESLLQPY

Substance: Vps11 (from UniProt P12868 1-1029)
- binding [1]: binds
- binding [2]: no binding
- binding [3]: no binding

From paper PMC3688683, “The N-Terminal Domains of Vps3 and Vps8 Are Critical for Localization and Function of the CORVET Tethering Complex on Endosomes” (PLoS ONE, 2013)
